# Assay results reported in article PMC4336329 (PLoS ONE, 2015).
# Hit rate of the full screen: of about 310,000 compounds, about 14,000 (4.5%) showed an effect of 50% or more. Effects have a minus sign here. This is one part of the list.
# Molecular target: human ether-à-go-go-related gene (hERG) potassium channel (human, UniProt Q12809)
# Assay: primary screen, population patch clamp on CHO cells stably expressing hERG
# 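Note: peak tail current of the secondary pulse compared with the same well before compound.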
# Chain of human ether-à-go-go-related gene (hERG) potassium channel (Q12809 whole entry, looked up): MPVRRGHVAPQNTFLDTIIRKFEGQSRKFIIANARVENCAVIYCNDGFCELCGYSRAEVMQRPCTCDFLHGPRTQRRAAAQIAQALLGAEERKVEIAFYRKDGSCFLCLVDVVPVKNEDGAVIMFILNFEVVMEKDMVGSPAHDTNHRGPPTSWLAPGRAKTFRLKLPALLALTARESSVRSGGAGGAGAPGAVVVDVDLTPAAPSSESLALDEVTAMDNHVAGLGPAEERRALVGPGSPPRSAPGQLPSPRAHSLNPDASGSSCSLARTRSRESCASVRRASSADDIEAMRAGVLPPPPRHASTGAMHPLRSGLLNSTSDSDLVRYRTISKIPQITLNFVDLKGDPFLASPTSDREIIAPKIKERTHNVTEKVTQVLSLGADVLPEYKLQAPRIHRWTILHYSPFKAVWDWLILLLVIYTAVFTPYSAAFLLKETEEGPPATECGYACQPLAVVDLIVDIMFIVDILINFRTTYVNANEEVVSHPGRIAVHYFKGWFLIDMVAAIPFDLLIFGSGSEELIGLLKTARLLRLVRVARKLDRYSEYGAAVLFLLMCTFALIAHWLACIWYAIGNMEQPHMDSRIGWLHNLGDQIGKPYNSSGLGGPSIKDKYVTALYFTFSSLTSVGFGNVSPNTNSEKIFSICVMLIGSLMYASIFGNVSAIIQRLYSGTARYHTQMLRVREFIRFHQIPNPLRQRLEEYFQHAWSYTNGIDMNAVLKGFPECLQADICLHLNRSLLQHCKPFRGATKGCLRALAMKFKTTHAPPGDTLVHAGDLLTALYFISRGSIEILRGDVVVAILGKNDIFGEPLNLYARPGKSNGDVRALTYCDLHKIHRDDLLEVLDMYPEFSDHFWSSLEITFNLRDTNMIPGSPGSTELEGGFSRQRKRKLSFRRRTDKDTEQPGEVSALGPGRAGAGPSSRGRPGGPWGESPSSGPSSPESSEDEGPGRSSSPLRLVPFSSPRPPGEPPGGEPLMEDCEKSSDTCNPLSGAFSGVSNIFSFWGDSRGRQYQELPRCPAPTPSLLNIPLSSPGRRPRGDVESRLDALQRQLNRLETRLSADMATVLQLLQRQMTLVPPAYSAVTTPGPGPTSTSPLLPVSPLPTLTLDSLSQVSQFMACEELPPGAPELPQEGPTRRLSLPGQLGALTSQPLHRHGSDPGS
row,SMILES,"hERG current change (%, negative = inhibition) at 10uM [%]"
1,COc1cc(NS(C)(=O)=O)ccc1Nc1c2ccccc2nc2ccccc12.Cl,-67.7
2,CC(C(=O)Nc1ccc(C(=O)O)cc1)N1C(=O)c2ccccc2C1=O (stereo not drawn),6.11
3,Clc1ccc(CSc2ncnc3nc[nH]c23)cc1,4.46
4,CC(=O)NC(CC(=O)O)c1ccccc1 (stereo not drawn),10.6
5,CN(CCc1ccccn1)C(=O)Nc1ccc(Cl)cc1,6.31
6,CC(=O)c1c(C)n(Cc2ccccc2Cl)c2ccc(O)cc12,9.73
7,CC(=O)N1c2ccc(S(=O)(=O)N3CCC(C(=O)N4CCN(c5ccccc5)CC4)CC3)cc2CC1C (stereo not drawn),-15
8,Cc1cccc(C(=O)N2CCN(c3ccc([N+](=O)[O-])c(NCc4ccco4)c3)CC2)c1,-34
9,O=C(Cn1nc(C(F)(F)F)c2c1CCCC2)NCCN1CCOCC1,2.81
10,COc1ccc(C)cc1NC(=O)CN(C)S(=O)(=O)c1cnc[nH]1,-3.02
11,CCOc1ccccc1NC(=O)C(OC(=O)c1ccccc1NS(=O)(=O)c1cccs1)c1ccccc1 (stereo not drawn),10.9
12,NC1=NC(=O)/C(=C/c2ccc(-c3ccc(S(N)(=O)=O)cc3)o2)S1,16.4
13,COC(=O)c1cc(NC(=O)C2CCCN(S(=O)(=O)c3c(C)n[nH]c3C)C2)cc(C(=O)OC)c1 (stereo not drawn),10.3
14,COc1ccc(-c2ccc(=O)n(Cc3ccc([N+](=O)[O-])cc3)n2)cc1,-75
15,C=CCNC(=S)N/N=C/c1ccc(-c2ccc(Br)cc2)o1,15.5
16,Cn1c(=O)c2c(ncn2CCc2ccccc2)n(C)c1=O,14.7
17,C=CCNC(=O)/C(C#N)=C/c1c(N2CC(C)OC(C)C2)nc2ccccn2c1=O (stereo not drawn),-25.1
18,CCC(=O)N1CCc2cc(Br)cc(S(=O)(=O)NCCN3CCCCC3C)c21 (stereo not drawn),-6.93
19,O=C(Cn1nc(-c2cccc(Cl)c2)ccc1=O)Nc1ccccc1Br,10.7
20,Cc1ccc(C2CC(c3ccc(Cl)cc3)=NNC2=O)cc1 (stereo not drawn),-24
21,O=C(NCCS(=O)(=O)NCc1ccc(F)cc1)c1ccc2c(c1)OCO2,-39.8
22,Cc1cc(C(=O)NNC(=O)COc2ccccc2Cl)n[nH]1,11
23,O=c1[nH]c(=S)[nH]c(O)c1N=Nc1ccc(OC(F)F)cc1,1.51

row,SMILES,"hERG current change (%, negative = inhibition) at 10uM [%]"
1,O=S(=O)(NCC1CCCO1)c1ccc(-c2ccc(S(=O)(=O)NCC3CCCO3)cc2)cc1 (stereo not drawn),-17
2,CCCc1cc(=O)oc2cc3oc(C)c(C)c3cc12,3.6
3,CSCc1ccc(C(=O)Nc2ccc(C(N)=O)cc2)cc1,12.3
4,Cc1ccc(-c2ccc(SCC(=O)Nc3cc(C)on3)nn2)cc1,20
5,CCCCN(CC)S(=O)(=O)N1CCC(C(=O)NCCCN2CCOCC2)CC1,16.9
6,CCCS(=O)(=O)N1CCCC(C(=O)NCCCN2CCN(c3ccccc3F)CC2)C1 (stereo not drawn),-21.1
7,O=C(c1ccco1)N1CCN(c2ncnc3scc(-c4ccc(F)cc4)c23)CC1,-70.2
8,CCCC(=O)Nc1nc2c(s1)COc1ccccc1-2,8.38
9,O=[N+]([O-])c1ccc(NC(=S)N2CCOCC2)cc1,-14
10,Cc1ccccc1N1C(=O)CSC1=C(C#N)C#N,18.3
11,COc1cnc(-c2ccccc2)c(-c2ccccc2)n1,1.06
12,Cc1ccc(S(=O)(=O)N2CCN(c3ccc([N+](=O)[O-])c4cccnc34)CC2)cc1,-9.52
13,COC(=O)C1C(=O)OC(C)(C)C1C(C)C(=O)c1ccccc1 (stereo not drawn),15.8
14,O=c1cccc2n1CC1CC2CN(Cc2c(Cl)cccc2Cl)C1 (stereo not drawn),-40.5
15,CCOc1ccc(NCc2cc3cc(OC)ccc3[nH]c2=O)cc1,2.01
16,COc1ccc(OC(=O)COc2cccc(C)c2)cc1,13.8
17,Cc1oc2ccc(OCc3ccccc3F)cc2c1C(=O)O,4.78
18,Cc1cc(C)c2cc(C#N)c(N3CCCC3)nc2c1,-3.43
19,Cc1ccc(N(CC(N)=O)C2SC(=O)N(C)C2=O)cc1 (stereo not drawn),-2.34
20,Cc1ccc(-c2nc(N3CCN(C)CC3)c3ccccc3n2)cc1.Cl,-59.9
21,CCN(CC)CCOC(=O)c1c(C)oc2ccc(O)cc12.Cl,-23.5
22,COc1ccccc1N1CC(C(=O)Nc2ccccc2N2CCCC2)CC1=O (stereo not drawn),11.5
23,COc1ccc(-c2c(C(=O)O)nc3ccccc3c2C(=O)O)cc1,5.04

row,SMILES,"hERG current change (%, negative = inhibition) at 10uM [%]"
1,Clc1cccc(Sc2ccc(-c3ccccn3)s2)c1,15.9
2,CC1CC(C)CN(C(=O)CCNS(=O)(=O)c2ccc3c(c2)CCC(=O)N3)C1 (stereo not drawn),8.96
3,CC(Sc1nc(-c2ccccc2)cc(C(F)(F)F)n1)C(=O)Nc1sc2c(c1C#N)CCC2 (stereo not drawn),-0.44
4,COc1cc2c(cc1OC)C(c1cc(Br)c(OC)c(OC)c1)CC(=O)N2 (stereo not drawn),19.2
5,COc1cccc(CNC(=O)CCCC(=O)NC(C)CCc2ccccc2)c1 (stereo not drawn),-5.45
6,CC(=O)NCCc1ccc(O)cc1,2.07
7,CCCNc1nc(OCC(F)(F)F)nc(OCC(F)(F)F)n1,3.4
8,CN(C)CCCNC(=O)c1ccc(-c2nc(-c3ccc(Cl)cc3)cs2)cc1,-10.7
9,CC(C)Cc1nnc(NC(=O)CCS(=O)(=O)c2ccc(Cl)cc2)s1,14.5
10,CCOc1cc(-c2nccc3cc(OC)c(OC)cc23)cc(OCC)c1OCC,-46.8
11,O=C(O)C(=O)O.O=C(c1ccco1)N1CCN(Cc2ccc(F)cc2)CC1,4.23
12,Cc1[nH]c(=O)[nH]c(=O)c1S(=O)(=O)Nc1ccc(F)c([N+](=O)[O-])c1,1.37
13,COc1cc(CNCc2ccccc2)c(Br)cc1OC1CCCC1.Cl,-13.4
14,CCN(CC)C(=O)C1CC(=O)OC12CCCCC2 (stereo not drawn),-0.326
15,CCCCc1c(O)nc(SCC(=O)N2CCOCC2)n(-c2ccc(OC)cc2)c1=O,13.4
16,COCCCNC(=O)c1ccc(S(=O)(=O)c2ccc(C)cc2)c(NC(C)=O)c1,16.2
17,CCN(CC(=O)Nc1ccc(NC(C)=O)cc1)Cc1c(O)ccc2cc(Br)ccc12,6.76
18,CCOc1ccccc1NC(=O)C(CC(C)C)NC(=O)C1CCC(C)CC1 (stereo not drawn),-15.7
19,CCCCNC(=O)c1cc2ccccc2s1,10.8
20,CCCCCCCCCCCCN1[C@@H](CC(C)=O)c2cc(F)cc(F)c2S1(=O)=O,15.5
21,CCOc1ccc(CCNC(=O)c2nn(C)c3c2CS(=O)(=O)c2ccccc2-3)cc1OCC,-39.7
22,O=C(CC(=O)N/N=C/c1ccc(O)cc1)N/N=C/c1ccc(O)cc1,14.3
23,COc1cccc(CNC(=O)C2CCN(c3nnc(N4CCCC4=O)s3)CC2)c1,17

row,SMILES,"hERG current change (%, negative = inhibition) at 10uM [%]"
1,O=C(N/N=C/C=C\c1cccc([N+](=O)[O-])c1)c1ccccn1,5.13
2,O=C(CCS(=O)(=O)Cc1ccccc1)N1CCN(Cc2ccccc2)CC1,-22.1
3,O=C1/C(=C\c2ccc3c(c2)OCO3)N2CCC1CC2,-6.55
4,COc1cc(CCN2C(=O)N[C@@H](c3cccc(C(F)(F)F)c3)C(C(C)=O)=C2C)cc(OC)c1OC,-41
5,COCc1cc(N2CCCCC2)nc(-c2ccccc2)n1,-6.15
6,COc1ccccc1C(=O)N(Cc1cccs1)C1CCS(=O)(=O)C1 (stereo not drawn),8.04
7,COc1ccc(C(=O)Nc2ccc3nc(N4CCCCC4)cc(C)c3c2)cc1OC,-56.8
8,CC(C)C[C@@H](CSc1ccccc1)N1CCN(C)CCC1=O,-16
9,COCC(C)N1CCC(Oc2cccc(C(=O)NCCc3ccccc3)c2)CC1 (stereo not drawn),-66.3
10,CCCS(=O)(=O)N1CCC(C(=O)NCCC(C)C)CC1,4.73
11,Cc1ccc(-c2csc(NC(=O)c3c(C)noc3C)n2)cc1C,-2.64
12,CCN(CC(=O)Nc1ccccc1C(F)(F)F)C(=O)Cn1c(=O)cnc2ccccc21,3.49
13,NC(=S)N/N=C/c1coc2cc(Cl)ccc2c1=O,-7.29
14,COc1ccccc1OC(=O)c1ccc(S(=O)(=O)N(C)C)cc1,-0.162
15,CCCCNC(=S)NNC(=O)c1ccncc1,15.8
16,CCc1cc(C=C(Cl)Cl)oc(=O)c1C,-12.3
17,COc1cc(/C(C)=N/N2CCOCC2)cc(OC)c1OC,29.5
18,COc1ccc(NC(=O)CSc2ccc3nnc(-c4cccnc4)n3n2)cc1OC,1.17
19,CCOc1cc(N2CCOCC2)c(OCC)cc1NC(=O)CN1C(=O)C2C3C=CC(C3)C2C1=O (stereo not drawn),14.3
20,COc1cc(/C=N/NC(=O)c2cccnc2)ccc1OS(=O)(=O)c1cc(C)ccc1C,-27
21,O=C(Nc1cccc(F)c1)C1CCN(C(=O)c2ccc(Cl)cc2)CC1,-49.4
